According to the supplement of paper PMC10126150:
Values marked as one replicate rest on one cluster of the flow cell; about a third of the high ones do not repeat.

test system: ATP; experiment: switch fluorescence ratio, 500 uM ATP over buffer (Cy3 cluster intensity, sum of 5 cycles each) (fold (ratio)); higher = stronger signal-on switching upon ATP binding; sequences stand for … in TCGTCGGCAGCGTCAGATGTGTATAAGAGACAGTTTTTTTTTTTTTTTTTTTTTTTTT…TC; details: aptamer strand: ATP DNA aptamer (quencher-CACCTGGGGGAGTATTGCGGAGGAAGG + anchor), 100 nM annealed; ATP concentration: 500 uM; one replicate
Summary of the method: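 After annealing to 100 nM quencher-labelled ATP aptamer, Cy3-labelled switching-strand clusters on a modified Illumina MiSeq flow-cell were imaged in selection buffer. A second image followed after 15 min with 500 uM ATP at 22 °C, and five such buffer/ATP cycles were done, each separated by NaOH stripping and re-annealing. The fluorescence ratio, averaged per switch-domain sequence, is summed target-cycle over summed buffer-cycle Cy3 intensity per cluster, with clusters outside 100-1000 RFU excluded.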
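Also: ATP exposure 15 min at 22 °C before imaging.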

Sequence	switch fluorescence ratio
GTAAACATAT	0.976
TCGGGCATTA	1.05
GAATCGCTCA	1.03
CTAAAGATGA	0.978
CTGCATGGG	1.12
AGTAAACATC	1.03
TAGTAGTCAT	0.998
AGGACCCCAT	1.06
ACCCGAATTA	1.05
GTGGGTCTCC	1.01
AATGAGGATC	0.991
ATCTAACTAA	0.995
CCCCATATTG	1.08
CCTTCTGGAT	1.03
GGCTGTACTG	0.976
GATCGTGAAA	1.03
GGGACTTTC	1.06
ATCATTCCCC	1.06
AAAGACCCGC	1.04
GTAGCACCAG	1.03
GAGCCGGTAG	1.02
TAGCTGACAT	1.02
TGGGAGTTCT	1.02
ACGGCATTAG	1.11
ACGGTGTGAC	1.01
TCTCGATAAG	1

Sequence	switch fluorescence ratio
CGTCGGCCGG	1.03
ATCAAGCGCG	0.997
ACGCCGCAAA	4.34
GATGGTCGGC	0.983
CTCAGGCCGT	1.01
GGTTACGCAA	4.48
TGGTGATAGG	1.03
AAAGGGTCTG	1.03
TCCTGTCTGG	0.985
TCATAGAGGG	1
GATAGACGGG	0.985
GACATAAATA	1.02
GATGGAGACT	0.98
GAACGGTTAG	0.95
GCAGTACTAC	3.24
CGATGCAAGG	2.72
TCGAGGTATC	0.97
CGTAGTTCGC	1.06
GCAACCCGTA	0.994
CCCATCTGGT	1.06
AGTCCTGTTT	0.979
TCGAGAGGCC	1.55
CAAATAGGGT	0.949
TAATTCAACT	1.01
TAAGTAGGAG	0.98
TAGGGCTACT	1.01

Sequence	switch fluorescence ratio
AGATAATCAG	0.941
GCTAGCCTAT	0.975
GCCGTGTGGA	1.05
CCGATATAGA	1.01
TCGACGAGAG	1
ATACCCGTTC	0.987
TGCACTGCGA	1.06
CGGACACGCG	1.03
TCAATAAACG	1.06
TTACCACGAG	1.04
TCTCAGTACA	1.04
CGATTTTTAA	0.99
CGCTTATGTT	1.04
GCCCTCATCG	0.983
GGAGGAGTGG	0.955
TATGACTGAA	1.03
AAATTGCGCA	1.05
TCAATATCGG	1.01
TTGCACAATA	1.05
ATTTGCGTGC	1.01
GATGCGAGGC	1.46
AGAAATGCGA	1.12
ACTGGTGTCT	1.05
TTGATAGAGC	1.05
GCTGTGACTT	1.21
ATGAGAGGTG	1.17

Sequence	switch fluorescence ratio
ATAGCGGCG	0.988
GAGGTACGGT	1.03
CGGGCCAAAA	1.08
AATGAATTTA	1.01
TTTATTCATG	1.02
CTGGGTCTGT	0.955
TCCCAACACC	3.46
ATGGCATA	1
TTAAGCCAAA	1.04
GAGGGGAAAG	1.06
GGGGTCTCGC	0.974
GTGTATCACA	1.02
TTTGTAGCGT	1.07
GAGTTAAAAA	0.918
GCTCGTTAAG	0.99
CATCGATTAG	0.956
CACAGCAATG	2.24
GGCGCAAGTC	1.48
AGCCCTGTGA	1.04
TCATTGACTG	1.05
CAAGCTAACG	1.05
TTCGTGGAGA	1.03
TACTTTCCAA	0.984
TAGCATACGG	1.3
CGATACTTTT	0.992
CCTGACTATT	1.05

Sequence	switch fluorescence ratio
ATGAAATGT	0.951
AATGCAGGCA	1.02
GCCGCATCT	0.996
AAATGAATGA	0.98
GAAAGTTACT	1.02
CGGATTCA	1.06
GGGGTTCGAC	0.941
GCCTGGTCGG	0.986
GCTATAACGC	1.01
GTGGTAATTC	1.01
GCTTTAGAA	0.93
GCGTCAAATT	1.01
TGAGGCCTTG	1.04
AATAATAGGA	1.03
GAACTCTGCT	1.15
GACAGGCACT	1.07
GTTGAATCCG	1.03
CTTGAACAAT	1.06
GCGACGTGTG	1.02
GTTACTTCAT	1.01
TCCACGGAGG	0.943
GCGGATTAGT	1.03
TCCCCAAGAT	1.06
GCATTATCGC	1.01
CAGGTCGTC	0.966
ATTCCTAGAG	1.01

Sequence	switch fluorescence ratio
GGAACGAAAT	1.17
CGTTAATTGT	1.02
AAATGTCTCG	0.998
TGGGAGCCCT	0.979
TACAGTGGTT	1.03
TCCATCAGCG	1.11
GAAGATTATT	1.01
AGGAGTTCCG	1.09
CAGTGAGATT	0.977
CATCATTATC	1.01
CTGGTTGACG	0.995
TTACTTACCA	1.19
ATTCCACGTT	1.04
CGTTTATAA	0.969
GCTTGATT	1.02
AGGCTGGGTT	1.01
AGATGGATA	0.982
CGTTGGGCAT	1.04
GATAACCGAC	2.65
TAGTGCATCC	1.03
TCACAGCCCA	1.05
TCATAGACTT	1.04
CGTGGAATCG	1.03
